PubChem BioAssay AID1460 (National Center for Advancing Translational Sciences (NCATS), 2008)
Among all 270,000 compounds or so, about 5,800 (2.1%) were called active. This list was built around the results that the source calls inconclusive (neither active nor inactive); the mix of calls is not that of the screen. Calls come from the whole dose curve; as a rule, active = well fitted inhibition curve with a large enough effect; inconclusive = small, poorly fitted or top-dose-only effect; inactive = flat fitted curve, though single readings scatter. Potencies beside an inconclusive call are fits to weak or partial responses and may not hold up.

Molecular target: Microtubule-associated protein tau (Homo sapiens) (UniProt P10636)
Assay: qHTS for Inhibitors of Tau Fibril Formation, Thioflavin T Binding; note: nearly all actives have a fitted effect of over 55% in size
Settings: recombinant tau K18 P301L (four-repeat tau fragment), heparin-induced fibrillization, ThT fluorescence; series mostly up to 57.4 µM
Outline: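 Aggregation was driven by heparin (20 uM final) acting on recombinant tau […] bearing P301L in 100 mM sodium acetate pH 7; fibrils were detected with Thioflavin T.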
% is set by controls: 0 for no effect and ±100 for the full control effect; potency is the fitted concentration of half-maximal effect; tags give direction and shape of the fitted curve.

Chain of UniProt P10636 (P10636 whole entry, looked up): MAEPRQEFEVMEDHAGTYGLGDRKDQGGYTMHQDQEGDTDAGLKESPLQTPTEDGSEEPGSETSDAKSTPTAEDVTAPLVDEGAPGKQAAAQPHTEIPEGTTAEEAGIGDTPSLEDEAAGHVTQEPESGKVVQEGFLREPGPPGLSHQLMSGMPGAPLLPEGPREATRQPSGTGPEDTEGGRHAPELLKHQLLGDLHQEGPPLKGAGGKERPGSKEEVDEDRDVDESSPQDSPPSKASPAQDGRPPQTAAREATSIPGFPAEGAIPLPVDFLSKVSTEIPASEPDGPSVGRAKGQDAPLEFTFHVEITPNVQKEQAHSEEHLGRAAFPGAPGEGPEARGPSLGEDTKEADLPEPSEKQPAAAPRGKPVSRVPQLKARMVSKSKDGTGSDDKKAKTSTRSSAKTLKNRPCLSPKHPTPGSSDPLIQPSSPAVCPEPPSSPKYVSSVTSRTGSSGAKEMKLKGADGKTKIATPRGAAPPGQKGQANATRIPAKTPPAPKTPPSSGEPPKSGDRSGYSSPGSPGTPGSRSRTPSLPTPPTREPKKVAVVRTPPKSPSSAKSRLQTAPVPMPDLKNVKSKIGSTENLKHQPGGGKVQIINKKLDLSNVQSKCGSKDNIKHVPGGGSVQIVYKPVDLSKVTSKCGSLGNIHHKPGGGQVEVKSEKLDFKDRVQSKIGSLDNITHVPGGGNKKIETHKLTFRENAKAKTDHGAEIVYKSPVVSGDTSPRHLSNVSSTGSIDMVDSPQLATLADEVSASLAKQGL

Question: With `COCCN(C(=S)Nc1cccc(C)c1C)C(C)c1ccco1` (configuration not stated) as the compound, how does the Potency read?
Answer: inactive

Question: With `Cc1cc(Nc2ccccc2)nn1C(=O)c1ccc(Br)cc1` as the compound, how does the Potency read?
Answer: inactive

Question: Which Potency does the source give for `CC(CCc1ccccc1)NC(=O)c1nnc(Cc2ccc(Cl)cc2)o1` (configuration not stated) here?
Answer: inconclusive: 20 µM [inhibitor, single point]

Question: Which Potency does the source give for `CC1=C(C(N)=O)C(c2ccc(C(C)C)cc2)n2nc(SCc3ccccc3F)nc2N1` (configuration not stated) here?
Answer: inconclusive: 8.91 µM [activator, partial curve]

Question: For `O=C(N/N=C/c1c[nH]c2ccccc12)c1cc(-c2cccc3ccccc23)n[nH]1`, which Potency is on record?
Answer: inconclusive: 2.51 µM [inhibitor, full curve]

Question: How did the Potency turn out when `Cc1ccc(-n2c(SCc3nc(-c4ccccc4C)no3)nnc2-c2ccncc2)cc1C` was run?
Answer: inconclusive: 0.0562 µM [inhibitor, full curve, poor fit]

Question: For `COCCN(CCOC)C(=O)C12CCC(C)(C(=O)C1)C2(C)C` (configuration not stated), which Potency is on record?
Answer: inactive

Question: With `O=C(Cc1ccccc1)Nc1nc(-c2cccc([N+](=O)[O-])c2)cs1` as the compound, how does the Potency read?
Answer: inactive

Question: For `S=c1[nH]nc(-c2ccccc2Cl)n1/N=C/C=C/c1ccco1`, which Potency is on record?
Answer: inconclusive: 39.8 µM [inhibitor, single point]

Question: For `COC(=O)/C=C1\S/C(=N/N=C/c2ccco2)NC1=O`, which Potency is on record?
Answer: inconclusive: 20 µM [inhibitor, partial curve]

Question: Which Potency does the source give for `CCOC(=O)c1ccc(N=C2C(=S)N(c3ccc(C(=O)OCC)cc3)C(=N)N2/N=C/c2ccccc2)cc1` here?
Answer: inconclusive: 11.2 µM [inhibitor, partial curve]

Question: Which Potency does the source give for `COc1cccc(N2CCN(c3ncccn3)CC2)c1` here?
Answer: inconclusive: 22.4 µM [inhibitor, partial curve]

Question: For `COC(=O)c1c(NC(=O)c2ccc(S(=O)(=O)N3CCCCC3)cc2)sc2c1CCN(C)C2`, which Potency is on record?
Answer: inactive

Question: How did the Potency turn out when `C=CCc1ccccc1OCC(O)CN1CCN(c2ccc(OC)cc2)CC1` (configuration not stated) was run?
Answer: inconclusive: 14.1 µM [inhibitor, partial curve]

Question: With `O=C(c1coc2ccc(O)cc12)C1CC1` as the compound, how does the Potency read?
Answer: inactive

Question: With `COc1cc(/C=C2/C(=N)N3C=CSC3=NC2=O)ccc1OCCCOc1cc(C)ccc1C` as the compound, how does the Potency read?
Answer: inconclusive: 14.1 µM [inhibitor, partial curve]

Question: How did the Potency turn out when `O=[N+]([O-])c1cccc(-c2nc(-c3cccs3)c(-c3cccs3)[nH]2)c1` was run?
Answer: inconclusive: 10 µM [inhibitor, partial curve]

Question: `Cc1ccc(-c2csc(=Nc3ccccc3)n2CCCO)cc1` was tested. Which Potency did it give?
Answer: inconclusive: 12.6 µM [inhibitor, partial curve, poor fit]

Question: With `CC(=O)c1ccc(N2CCN(C(=O)c3ccco3)C(C)C2)c(F)c1` (configuration not stated) as the compound, how does the Potency read?
Answer: inconclusive: 15.8 µM [inhibitor, partial curve, poor fit]

Question: How did the Potency turn out when `CC1=C(c2ccc(Cl)cc2)S(=O)(=O)N=C1N1CCN(c2cccc(C)c2)C(C)C1` (configuration not stated) was run?
Answer: inconclusive: 39.8 µM [inhibitor, single point]

Question: `CCOc1ccc2nc(N3CCCCCC3)sc2c1` was tested. Which Potency did it give?
Answer: inconclusive: 25.1 µM [inhibitor, partial curve]

Question: With `CC1NC(=O)NC1CCCCCC(=O)Nc1ccc(F)cc1` (configuration not stated) as the compound, how does the Potency read?
Answer: inactive

Question: How did the Potency turn out when `CCN1C(=O)[C@@H]2[C@H]3C(=CC[C@@H]2C1=O)C1(OCCCO1)[C@H]1O[C@@H]1[C@H]3O` was run?
Answer: active: 2.82 µM

Question: Which Potency does the source give for `CC(C)(C)OC(=O)NCC(=O)Oc1cc2oc(=O)cc(-c3ccccc3)c2cc1Cl` here?
Answer: inactive

Question: Which Potency does the source give for `c1ccc(-c2nc3ccccc3s2)nc1` here?
Answer: inactive

Question: With `CC(=O)c1cc(-c2ccccc2)n(CC(=O)N2CCC(N3CCCCC3)CC2)c1C` as the compound, how does the Potency read?
Answer: inactive

Question: With `COc1ccc2c(=O)c3c(=O)n(-c4ccc(C)cc4)c(-c4ccccc4)nc3oc2c1` as the compound, how does the Potency read?
Answer: inactive

Question: With `COc1ccccc1-c1noc(-c2ccc(NCCc3ccccc3)c([N+](=O)[O-])c2)n1` as the compound, how does the Potency read?
Answer: inactive

Question: With `CCS(=O)(=O)c1ncc(Cl)c(C(=O)N(Cc2ccccc2)Cc2ccco2)n1` as the compound, how does the Potency read?
Answer: inconclusive: 3.16 µM [inhibitor, full curve, poor fit]

Question: `Nc1cc(OC(=O)c2cccs2)nn1S(=O)(=O)c1ccc(F)cc1` was tested. Which Potency did it give?
Answer: inconclusive: 8.91 µM [inhibitor, partial curve]

Question: How did the Potency turn out when `COc1ccccc1C1CCN(c2ccc([N+](=O)[O-])cn2)CC1` was run?
Answer: inconclusive: 20 µM [inhibitor, partial curve, poor fit]

Question: `CCc1ncc(/C=C2\C(=O)Nc3ccccc32)[nH]1` was tested. Which Potency did it give?
Answer: active: 12.6 µM

Question: With `O=C(N/N=C/c1ccncc1)c1cc([N+](=O)[O-])cc([N+](=O)[O-])c1O` as the compound, how does the Potency read?
Answer: inconclusive: 12.6 µM [inhibitor, partial curve]

Question: `COC(=O)C(=C/C(C)=C/c1cccnc1)C(=O)OC` was tested. Which Potency did it give?
Answer: inconclusive: 20 µM [inhibitor, partial curve]

Question: For `COc1cc([N+](=O)[O-])ccc1NC(=O)/C=C/C(=O)O`, which Potency is on record?
Answer: inactive

Question: For `CCn1c(C)cc(/C=C2/SC(=S)N(CC(=O)O)C2=O)c1C`, which Potency is on record?
Answer: inconclusive: 10 µM [inhibitor, partial curve]

Question: Which Potency does the source give for `O=C(NC(=S)Nc1cccc2ncccc12)c1ccccc1` here?
Answer: inactive

Question: For `CCOC(=O)Nc1cccc(OCC(=O)Nc2ccccc2OC)c1`, which Potency is on record?
Answer: inconclusive: 17.8 µM [inhibitor, single point]

Question: `CC1=CC(=O)OC1Cc1ccc2ccccc2n1` (configuration not stated) was tested. Which Potency did it give?
Answer: inactive

Question: For `COc1ccccc1N1CCN(C(=O)C(NS(=O)(=O)c2cccs2)c2ccccc2)CC1` (configuration not stated), which Potency is on record?
Answer: inconclusive: 5.62 µM [inhibitor, partial curve]

Question: `CCOc1ccc(N/C(C)=C\C(=O)c2ccc3c(c2)OCCO3)cc1` was tested. Which Potency did it give?
Answer: inconclusive: 14.1 µM [inhibitor, partial curve]

Question: `CSc1ccn(CCC(=O)O)c(=O)n1` was tested. Which Potency did it give?
Answer: inconclusive: 0.178 µM [activator, full curve, poor fit]

Question: With `O=C(c1ccc(Cl)s1)N1CCc2ccccc21` as the compound, how does the Potency read?
Answer: inconclusive: 11.2 µM [inhibitor, partial curve]

Question: How did the Potency turn out when `C/C(=N/NC(=O)c1cccs1)c1c(C)[nH]n(-c2nc3ccccc3s2)c1=O` was run?
Answer: inconclusive: 11.2 µM [inhibitor, partial curve]

Question: With `COc1cccc2cc(-c3nc(Cl)c4c5c(sc4n3)CC(C)CC5)c(=O)oc12` (configuration not stated) as the compound, how does the Potency read?
Answer: inconclusive: 12.6 µM [inhibitor, partial curve]

Question: How did the Potency turn out when `CCc1ccc(NC(=O)Cn2c(=O)n(Cc3ccccc3)c(=O)c3oc4ccccc4c32)cc1` was run?
Answer: inconclusive: 39.8 µM [activator, single point]

Question: Which Potency does the source give for `CCOc1cccc(-c2cc(-c3n[nH]c(=S)n3CC)c3ccccc3n2)c1` here?
Answer: inactive

Question: Which Potency does the source give for `O=C(OCCN1CCOCC1)C(c1ccccc1)c1ccccc1` here?
Answer: inactive

Question: With `NC(=O)CC(NC(=O)c1ccccc1)c1ccc(NCCOc2ccccc2)c([N+](=O)[O-])c1` (configuration not stated) as the compound, how does the Potency read?
Answer: active: 12.6 µM

Question: Which Potency does the source give for `COc1ccc(Br)cc1CNc1ccc2[nH]c(=O)[nH]c2c1` here?
Answer: inconclusive: 25.1 µM [inhibitor, single point]

Question: With `Cc1cccc(CS(=O)(=O)CC2Nc3ccc(C(=O)NCc4ccccc4Cl)cc3NC2=O)c1` (configuration not stated) as the compound, how does the Potency read?
Answer: inconclusive: 12.6 µM [inhibitor, partial curve]

Question: With `O=C(CSc1nc2ccccc2[nH]1)c1ccc2c(c1)OCO2` as the compound, how does the Potency read?
Answer: inactive

Question: Which Potency does the source give for `COC(=O)c1ccccc1NC(=O)CSc1nnc(-c2cccnc2)n1C` here?
Answer: inactive

Question: For `O=C(CSc1ncnc2ccccc12)c1ccco1`, which Potency is on record?
Answer: inconclusive: 22.4 µM [inhibitor, single point]

Question: `O=C(NCCc1c[nH]c2ccccc12)Nc1ccccc1C(F)(F)F` was tested. Which Potency did it give?
Answer: inactive

Question: For `O=C1N=C(O)CN1/N=C/c1ccc(-c2ccc([N+](=O)[O-])cc2)o1`, which Potency is on record?
Answer: active: 10 µM

Question: For `CCOc1cccc(OCCn2cnc3ccccc3c2=O)c1`, which Potency is on record?
Answer: inactive

Question: For `CCCNC(=O)C1CCN(c2cc(C)nc3c(-c4ccc(OC)c(OC)c4)c(C)nn23)CC1`, which Potency is on record?
Answer: inconclusive: 31.6 µM [inhibitor, single point]

Question: How did the Potency turn out when `CCOCCCNC(=O)c1c(NC(=O)c2cc(=O)c3cc(C)c(C)cc3o2)sc2c1CCC2` was run?
Answer: inconclusive: 39.8 µM [inhibitor, single point]

Question: Which Potency does the source give for `CCOC(=O)c1ccc(N2C(=O)c3[nH]nc(-c4ccc(OC)cc4)c3C2c2ccc(C)cc2)cc1` (configuration not stated) here?
Answer: inactive

Question: How did the Potency turn out when `C/C(CC(=O)Nc1ccccn1)=N\NC(=O)c1cnccn1` was run?
Answer: inconclusive: 31.6 µM [inhibitor, single point]

Question: For `NCCC[C@@H](CC(=O)N[C@@H]1CCCC[C@H]1C(=O)N[C@H](CC(=O)N[C@@H](CCC(=O)O)CC(=O)O)Cc1ccccc1)NC(=O)C[C@H](CO)NC(=O)[C@@H]1CNCC[C@H]1N`, which Potency is on record?
Answer: inactive

Question: How did the Potency turn out when `COCCCN1C(=O)/C(=C\c2cccs2)C(C(=O)OC)=C1C` was run?
Answer: inconclusive: 22.4 µM [inhibitor, partial curve]

Question: For `CCc1cccc(C)c1NC(=O)Nc1csc2c1CCCC2`, which Potency is on record?
Answer: inactive

Question: Which Potency does the source give for `Cc1cccc(N2CCN(S(=O)(=O)c3c(C)[nH]c(=O)[nH]c3=O)CC2)c1C` here?
Answer: inactive

Question: Which Potency does the source give for `Cc1cc(C)c(OCC(=O)Nc2cccc(O)c2)cc1C` here?
Answer: inconclusive: 11.2 µM [inhibitor, partial curve]

Question: With `CCN(CC)c1ccc(/C=N\NC(N)=O)cc1` as the compound, how does the Potency read?
Answer: inconclusive: 28.2 µM [inhibitor, single point]

Question: Which Potency does the source give for `N#CC1=C2SCN(Cc3ccco3)CN2C(=O)CC1c1c(F)cccc1Cl` (configuration not stated) here?
Answer: active: 7.08 µM

Question: Which activity, negative = inhibition does the source give for `C/C=C/OC(=O)NC(c1ccccc1)[C@]1(C(C)=O)CCOC1=O` (some centres not stated) here?
Answer: inactive: -7.45% [at 11.5 µM]

Question: Which Potency does the source give for `CCCCc1c(C)nn(-c2nnc3c4ccccc4n(C)c3n2)c1C` here?
Answer: inconclusive: 14.1 µM [inhibitor, partial curve]

Question: With `CC1=C(C(=O)Nc2ccc(Cl)cc2)C(c2ccncc2)C(C#N)=C(SCC(N)=O)N1` (configuration not stated) as the compound, how does the Potency read?
Answer: inactive

Question: Which Potency does the source give for `Cc1ccn2c(Nc3ccc4c(c3)OCO4)c(-c3ccco3)nc2c1` here?
Answer: inconclusive: 15.8 µM [inhibitor, partial curve]
